Test results from article PMC4336329 (PLoS ONE, 2015).
The campaign covered roughly 310,000 compounds. About 2,200 (0.71%) showed an effect of 50% or more. The effect is printed as a negative number. Some of the results follow. Where a SMILES comes first, the peptide text is derived from it. The star is where a group is joined. Cbz = O=C(OCc1ccccc1)*

The compounds below were run against human ether-à-go-go-related gene (hERG) potassium channel (human, UniProt Q12809) (assay: primary screen, population patch clamp on CHO cells stably expressing hERG).
Sequence of human ether-à-go-go-related gene (hERG) potassium channel (Q12809 whole entry, looked up): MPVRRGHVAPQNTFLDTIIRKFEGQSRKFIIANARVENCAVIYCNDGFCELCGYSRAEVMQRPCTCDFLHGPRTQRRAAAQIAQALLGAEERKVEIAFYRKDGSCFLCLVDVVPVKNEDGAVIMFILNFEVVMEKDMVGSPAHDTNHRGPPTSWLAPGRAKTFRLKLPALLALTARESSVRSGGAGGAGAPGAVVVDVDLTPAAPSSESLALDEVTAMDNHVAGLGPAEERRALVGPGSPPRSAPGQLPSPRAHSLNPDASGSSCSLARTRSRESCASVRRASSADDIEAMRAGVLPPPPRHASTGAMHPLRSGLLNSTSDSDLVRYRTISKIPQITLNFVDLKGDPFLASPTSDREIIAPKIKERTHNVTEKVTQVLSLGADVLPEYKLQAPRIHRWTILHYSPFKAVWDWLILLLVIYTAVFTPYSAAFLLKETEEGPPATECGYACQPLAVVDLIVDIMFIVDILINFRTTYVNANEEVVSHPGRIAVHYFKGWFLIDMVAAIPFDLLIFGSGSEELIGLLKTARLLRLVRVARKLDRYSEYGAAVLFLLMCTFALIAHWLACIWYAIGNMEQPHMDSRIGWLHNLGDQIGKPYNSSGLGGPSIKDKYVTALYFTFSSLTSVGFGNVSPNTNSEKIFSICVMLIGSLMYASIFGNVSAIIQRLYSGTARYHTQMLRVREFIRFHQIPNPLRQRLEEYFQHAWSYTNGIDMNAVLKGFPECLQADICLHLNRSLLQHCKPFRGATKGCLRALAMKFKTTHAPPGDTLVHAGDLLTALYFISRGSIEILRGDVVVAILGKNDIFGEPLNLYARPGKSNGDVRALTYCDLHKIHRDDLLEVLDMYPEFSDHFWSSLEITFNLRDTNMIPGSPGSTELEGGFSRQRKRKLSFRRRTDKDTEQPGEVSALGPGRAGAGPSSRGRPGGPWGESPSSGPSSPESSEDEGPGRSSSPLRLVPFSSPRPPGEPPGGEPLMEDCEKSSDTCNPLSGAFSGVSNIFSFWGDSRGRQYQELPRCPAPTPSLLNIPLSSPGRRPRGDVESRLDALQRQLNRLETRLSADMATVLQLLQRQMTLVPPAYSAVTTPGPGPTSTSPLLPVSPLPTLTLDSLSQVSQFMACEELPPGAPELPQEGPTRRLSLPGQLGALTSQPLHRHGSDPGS

Row | SMILES | hERG current change (%, negative = inhibition) at 1uM [%]
1 | O=S(=O)(/N=C(/Nc1cc(N2CCOCC2)ncn1)c1ccc(F)cc1)c1ccccc1 | -1.47
2 | c1ccc(-n2ncc3c2ncn2nc(-c4ccco4)nc32)cc1 | 17.4
3 | O=C(COc1ccccc1)N(Cc1cccs1)C1CCS(=O)(=O)C1 (stereo not shown) | 2.24
4 | O=C(COc1coc(CN2CCc3ccccc3C2)cc1=O)Nc1ccc([N+](=O)[O-])cc1 | 5.94
5 | COc1ccc(-n2c3c(cc(C(=O)N4CCCCC4)c2=O)C(=O)CC(C)(C)C3)cc1 | 14.4
6 | O=C(N/C(=C\c1ccc([N+](=O)[O-])cc1)C(=O)N1CCCCC1)c1ccco1 | -41.5
7 | CC(=O)n1cc(Nc2ccc([N+](=O)[O-])cc2)c2ccccc21 | 4.63
8 | CCCN(CCC)C1=CC(=[N+]2CCCC2)CC(C)(C)C1.[I-] | -42.7
9 | FC(F)Oc1ccc(NC(=S)NCC2COc3ccccc3O2)cc1 (stereo not shown) | 7.83
10 | O=C(NC1=NCCS1)c1cccc(S(=O)(=O)N2CCc3ccccc32)c1 | 12.3
11 | CCCCCCN1CC(=O)N2Cc3[nH]c4ccccc4c3C[C@H]2C1=O | 7.98
12 | CCCN1CNC(=S)N(c2ccc(C(=O)OCC)cc2)C1 | 10.9
13 | O=C1OC(N2C(=O)CC[C@H]2C(=O)NCC2CCCO2)c2ccccc21 (stereo partly shown) | 13.9
14 | CCc1cc(CNC(=O)C2CCC(=O)N(Cc3ccc(Cl)cc3)C2)on1 (stereo not shown) | -12.8
15 | Cc1cc(NS(=O)(=O)Cc2ccccc2)no1 | -0.205
16 | CCCCN(CCCC)CC(O)COc1ccc(Br)cc1 (stereo not shown) | -43.6
17 | c1ccc2oc(-c3csc(NCC4CCCO4)n3)cc2c1 (stereo not shown) | 1.08
18 | Cc1cc(C)c2nc(NC(=O)c3ccc(OCC4CCCO4)cc3)sc2c1 (stereo not shown) | 13.2
19 | CCC(C)N(C(=O)CSc1nnnn1-c1ccccc1OC)C1CCS(=O)(=O)C1 (stereo not shown) | -11
20 | CC1(c2ccc(C#N)cc2)NC(=O)N(CC(=O)Nc2cc(S(=O)(=O)N3CCOCC3)ccc2Cl)C1=O (stereo not shown) | 11.5
21 | CCCCOc1ccc(C2C(C(=O)c3ccc(C)o3)=C(O)C(=O)N2Cc2ccco2)cc1 (stereo not shown) | 10.5
22 | CN(C)C(=O)CCN1CCOCC1 | 11.1
23 | CCS(=O)(=O)c1ccc2oc(SCC(=O)N3c4ccccc4CC3C)nc2c1 (stereo not shown) | -11.1
24 | COc1ccc(C(=O)N2CCCc3ccccc32)cc1 | 5.2
25 | CCOc1ccccc1NC(=O)c1cccc(N2C(=O)CCC2=O)c1 | 12.3
26 | COc1ccc(OC)c(Nc2nc(N)nc(CSc3nnc(-c4ccncc4)o3)n2)c1 | 13.1
27 | CC(C)(C)C(=O)OCc1nc(-c2ccc(F)cc2)cs1 | 12.7
28 | COCCNC(=S)N/N=C(\C)c1cc2ccccc2o1 | -0.647

Row | SMILES | hERG current change (%, negative = inhibition) at 1uM [%]
29 | COc1ccc2oc(=O)c(-c3cn4ccc(C)cc4n3)cc2c1 | 10.1
30 | CCCc1cc(=O)[nH]c(SCC(=O)N2CCN(S(=O)(=O)c3ccc(C)cc3C)CC2)n1 | 17.5
31 | O=C1C(=O)N(CCCn2ccnc2)C(c2cccnc2)/C1=C(/O)c1ccc(F)cc1 (stereo not shown) | 10.1
32 | Cc1ccc(-c2nnc(COC(=O)c3cc(=O)[nH]c4ccccc34)o2)cc1 | 8.42
33 | O=C(CSc1nc2ccccc2o1)Nc1nc2ccccc2s1 | 9.85
34 | CCOc1ccc(-n2c(SCC(=O)NC3CCS(=O)(=O)C3)nnc2-c2cccnc2)cc1 (stereo not shown) | 23.3
35 | CCOc1ccc(C)cc1S(=O)(=O)NC1CCCCC1 | -8.33
36 | O=[N+]([O-])c1cc2c(cc1/C=N/n1cnnc1)OCO2 | 9.68
37 | CCc1ccccc1N(CC(=O)NCCc1ccccc1)C(=O)CCC(=O)Nc1ccccn1 | -0.84
38 | CCCc1cc(C(=O)N2CCC(N3CCC(C(=O)NC(C)C)CC3)CC2)n(C)n1 | 8.76
39 | COC(=O)C(CO)NC(=O)C(C)NC(=O)CNC(=O)OCc1ccccc1 (stereo not drawn) (Cbz-Gly-Ala-Ser-OMe; configuration not given here) | 13.4
40 | COc1ccc([N+](=O)[O-])cc1NC(=O)C(C)N(C)Cc1cccc(OC)c1OC (stereo not shown) | 2.1
41 | CCOC(=O)N1CCN(C(=O)CN2C(=O)COc3ccc(C)cc32)CC1 | 7.11
42 | O=C(CSc1nnc(NC(=O)C2CC2)s1)NCc1ccccc1 | 7.37
43 | CN(CC(=O)NC1CCCCCCC1)S(=O)(=O)c1cnc[nH]1 | 11
44 | CCCCNC(=O)CNC(=S)N(Cc1ccccc1F)C1CCCCC1 | 10.9
45 | COc1ccc([C@H]2CC(=O)C=C(c3ccc(F)cc3OCc3ccccc3)C2)cc1OC | 10.3
46 | CN(C)S(=O)(=O)c1ccc(N2CCCC2)c(C(=O)Nc2ccccc2)c1 | 3.62
47 | Cc1ccc(NC(=O)CN(C)C(=O)CCC(=O)N2CCOCC2)cc1 | 9.66
48 | Cc1ccc(N2CCN(S(=O)(=O)N(C)C)CC2)cc1Cl | 8.63
49 | O=C(CNc1cccc(S(=O)(=O)N2CCOCC2)c1)N1CCc2ccccc21 | 12.5
50 | Cc1ccc(S(=O)(=O)N2CCC(C(=O)OCCOc3ccccc3)CC2)cc1C | 1.87
51 | CCN1C(=O)N[C@@H](c2ccccc2)[C@@H](C(=O)OC)[C@H]1C | 10.6
52 | Cc1nc2c(Br)c3nc(C(F)(F)F)[nH]c3c(Br)c2[nH]1 | -0.126
53 | NC(=O)NC(=O)COC(=O)c1ccc(OC(F)F)cc1 | 11.9
54 | CS(=O)(=O)N(CC(=O)N1CCCCC1)c1ccc2c(c1)OCO2 | 11.6
55 | CC1(C)S[C@@H]2C(C(=O)OCc3ccccc3)NC(=O)N2C1C(=O)OCc1ccccc1 (stereo partly shown) | 9.86
